The values below are quoted from earlier work in PMC4554999 (Bioorganic & medicinal chemistry, 2015).

This data set concerns the target rat α4β2-nAChR (Rattus norvegicus, UniProt P09483+P12390). As to conditions: 100 μM compound; previously determined value; ref [9]; cited from earlier work.

Turning to `c1cnc2cc3c(cc2n1)[C@@H]1CNC[C@H]3C1` [varenicline], the “Antagonist Activity (% EC50 ACh remaining at 100 μM) α4β2” value is given as 38 ± 2%.
